# Experiments:
# [1] = system: Male C57BL/6 wild type mice; settings: ip administration; cited from earlier work
# [2] = system: Male C57BL/6 wild type mice; settings: cumulative dosing up to 10 mg/kg ip, 50°C WWTW
Structure (SMILES),"Antinociceptive activity (in words), previously reported compounds [1]","Duration of action (in words), previously reported compounds [1]",Antinociceptive activity (in words) [2]
CC(=O)N1CC[C@@H](NC(=O)[C@@H](N)Cc2c(C)cc(O)cc2C)c2cc(Cc3ccc4ccccc4c3)ccc21.O=C(O)C(F)(F)F [Compound 2B],full antinociceptive efficacy,greater than four hours,
CC(=O)N1CC[C@@H](NC(=O)[C@@H](N)Cc2c(C)cc(O)cc2C)c2cc(CN3CCc4ccccc4C3)ccc21.O=C(O)C(F)(F)F [Compound 2D],full antinociceptive efficacy,greater than four hours,
Cc1cc(O)cc(C)c1C[C@H](N)C(=O)N[C@@H]1CCN(S(C)(=O)=O)c2ccc(Cc3ccccc3)cc21.O=C(O)C(F)(F)F [Compound 4A],,,full antinociceptive activity
Cc1cc(O)cc(C)c1C[C@H](N)C(=O)N[C@@H]1CCN(S(C)(=O)=O)c2ccc(CN3CCc4ccccc4C3)cc21.O=C(O)C(F)(F)F [Compound 4D],,,full antinociceptive activity
Cc1cc(O)cc(C)c1C[C@H](N)C(=O)N[C@@H]1CCN(C(=O)c2ccccc2)c2ccc(Cc3ccc4ccccc4c3)cc21.O=C(O)C(F)(F)F [Compound 5B],,,full antinociceptive activity
Cc1cc(O)cc(C)c1C[C@H](N)C(=O)N[C@@H]1CCN(C(=O)c2ccccc2)c2ccc(Cc3cnc4ccccc4c3)cc21.O=C(O)C(F)(F)F [Compound 5C],,,full antinociceptive activity

# Reference: article PMC7007966 (Journal of medicinal chemistry, 2019)
